Results reported in the supplement of paper PMC3334620.
In all, about 33,000 sequences were measured (“E-score (-0.5 to 0.5)”: median about -0.01, highest 2% from about 0.26 on). The list shows a part of the results.

Target: Ste12 (UniProt P13574)
Test: PBM E-score (8-mer binding enrichment) (E-score (-0.5 to 0.5)); higher = stronger / more preferred TF binding; most listed sequences are background and not binding sites
Conditions: protein concentration: 200 nM; construct: GST-DNA-binding domain
Outline: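 GST-tagged yeast TFs (full-length or DNA-binding domain) were made by PURExpress in vitro transcription/translation and applied at about 100-200 nM to universal all-10-mer Agilent arrays. The arrays were made double-stranded by primer extension, on fresh or once-stripped slides. Bound protein was detected with fluorescent anti-GST, and scans were normalised with masliner. Each ungapped eight-base word, pooled with its reverse complement, received an E-score (modified Wilcoxon-Mann-Whitney statistic) from the Universal PBM Analysis Suite.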

Sequence	PBM E-score
AAACTGGA	0.158
CATTACAA	0.127
TCAACCGA	-0.0418
CAGTATGG	-0.016
AACGTCGT	-0.038
GTGTAGTA	-0.0104
CTGGCTGA	-0.22
AGCGTACG	-0.142
AGGGTCAT	-0.12
AACCCCGA	0.209
TGAGCGAA	0.0547
GGGCCCCC	-0.236
ACCTTAGC	-0.00188
CCGTAAGA	-0.0646
CTAGAACA	-0.0367
CTAGGGAG	-0.136
TGGTCCAA	0.0063
GAAAGCAA	0.0527
ACACGATA	-0.0375
GACCTAAA	0.0227
AGGTAGGA	-0.0176
AGATCCAG	-0.0172
ATCAGTTC	-0.075
AATCGCGT	0.00814
CTCCACTA	0.0109

Sequence	PBM E-score
GAGAGCTC	-0.175
TCACCTAA	0.00859
CATTCGCA	0.0612
GAATGTGA	0.0826
AGTTGGAA	0.0446
AATCGGTA	-0.0358
CTCAAAGC	-0.00428
CCCACCAA	0.0792
AAGGCCCT	-0.108
ATTAATAG	0.283
AGTCGCAA	0.0889
ATAGCTTG	-0.0583
ACGCTGAT	-0.042
AACCGGCT	-0.112
GTAAAATA	0.131
GTCAGGAA	0.0687
CAGTGTCC	-0.0612
CCACCTTA	0.0736
GCTTAAAA	0.31
CATTTCCA	0.0625
ATACTGCC	-0.049
AATTGGTG	0.137
GCGTCCAC	-0.322
ACGGCGTC	0.0249
CGTATAAC	-0.0972

Sequence	PBM E-score
CGATATCC	0.111
AATGAGCG	0.0838
CTCGCAAG	0.107
AGTATTAA	0.242
CAACTGAA	0.201
ATGGGGCA	-0.116
GGAGATCA	0.0915
ACCCAGGC	0.145
CCGCCGAA	0.13
CGCGGGAA	0.161
GTGAGTTA	0.0664
AGTGATGA	0.0858
GGACATAA	0.0357
AGCACCCC	-0.222
AACAAGTC	0.0306
AAGACATA	0.0632
CTCGGGGA	-0.0552
CTCCAGAA	-0.152
ACATCTAT	0.222
GTGTTGTA	-0.0484
CAACACCC	-0.0603
CGGCGGTC	-0.149
CCTCACTC	0.0329
AGGCTAAC	-0.212
TAGTAAGA	-0.0976

Sequence	PBM E-score
ATAATAAG	0.225
CTCGCCCC	0.0507
CCCATGTC	-0.133
CTCCCTTA	-0.103
TAGAATCA	-0.00673
ACTAGTGA	-0.101
ATTAACCC	0.0736
CCATCCTA	-0.0973
CGGGCCAC	0.0179
AAAACTTG	0.203
GCAGCCGC	-0.0789
CTAAATTA	0.163
GCTTGGAC	-0.208
AGTAGCGC	-0.0571
GGTCGCCA	-0.046
AATGCGAC	0.161
CACGGGAC	-0.133
GCCCAAGC	-0.106
AACTGACC	-0.142
CGATGTAA	-0.0249
GGATCTAC	-0.172
ATACAAGA	-0.0485
ACGCGTAG	-0.129
CATCACGG	-0.0401
CTCCATCC	-0.16

Sequence	PBM E-score
AACAACCA	0.0498
GGTATGGA	0.0631
CTAAGCAC	-0.0297
GACTAGGC	-0.0762
TCGAAAGA	0.127
CCCAATGA	-0.153
AAGGTGCT	-0.0924
CGCAAGTC	-0.147
AGTGTATC	0.141
CCCTTGCG	-0.0882
ATGCGTAA	0.0221
TATACCCA	-0.0142
AGAGCACT	-0.0697
CGGGTATA	0.0149
AGGGTCGG	-0.154
GCCCACTA	-0.15
AGCCTATA	0.0978
CCGCTGGC	-0.159
GAAACACC	0.311
CATAAGGG	0.183
AGTGAGAT	-0.0563
AATTGATC	0.0104
AGTCCCCG	-0.0595
GCCGAGCC	-0.0318
ACACTCGA	-0.0149

Sequence	PBM E-score
GTTAGTTA	0.0712
AATAGATG	0.0897
CGTGCTGC	-0.0856
AACTGATA	0.14
CTGCAACC	0.0045
CATTTGAA	0.226
CTCTCCGC	-0.0466
GTACTTTA	0.0246
CCCAGCCG	-0.0277
CACTGTCC	-0.148
TAGTGAAA	0.324
CGTACTAG	-0.289
GGACCTTA	-0.12
CCCTAGGC	-0.136
AAACTCTG	0.0406
CGGGCACC	-0.126
AAAAGTTC	0.0553
ATTTTCTA	0.221
GGTACCAA	-0.0343
ATGACCGA	-0.0095
CTACCCGA	-0.044
AGAGGCGG	0.0263
CACGCAAA	0.195
AATTTCCA	0.0904
GGTAGGCA	-0.193

Sequence	PBM E-score
CAGCTTAC	0.0225
AAGTCCAA	-0.127
ATCGTACC	-0.102
AGCTGCTC	-0.174
AAAGGTGC	0.0479
GGGACTAA	-0.216
GCACGGAA	-0.0629
GCGCATCA	0.121
CGAGTTGA	0.113
AAAAGGGC	-0.0012
AGGTAGAA	0.0137
ACTTTCTA	-0.0682
GAAACAAC	0.334
CGAGCTGC	0.0998
TAAGACCA	-0.00351
ACATACGG	-0.133
CTCCACCA	0.00862
GGTCTAAA	0.077
GGACCAGA	-0.091
GGAGGACA	-0.106
ATGCTTCA	0.00041
AATGGCAT	0.152
AATACTGA	0.131
AACGACCA	-0.0479
GGGGGCTA	-0.209

Sequence	PBM E-score
AGAACTGG	-0.0181
CGTCGGAC	-0.0707
AAGCGACC	-0.00892
TACAGGGA	-0.185
GAGGATGA	-0.00618
AGACCATC	-0.0699
CAGGTCTA	-0.0792
AACCATTA	0.17
AGGAGCTC	-0.00475
CCGGTCTA	-0.191
CTACGACC	-0.133
AGCTCCGG	0.063
CACTCCTC	0.12
CAGTGTAA	0.194
GGCACAAA	0.0876
GACAAAGA	0.0123
CACGAGCG	-0.0794
GGACCCAC	-0.162
CTAGACCA	-0.044
CTGGTCAA	0.111
ATTTAGAA	-0.00027
CCGTACCG	-0.214
CGGCCTGA	-0.152
AAGCGGCC	-0.152
ATACACCG	-0.0613

Sequence	PBM E-score
ATATTATA	0.18
ACGGAAGA	-0.0013
CTTGGAGA	-0.0648
CCTAATCG	0.0143
CTTTTGAA	0.0752
CGCGAAAA	0.212
ACTAACAC	0.0112
AGTTAAGC	-0.00263
CTAATGAA	0.247
AAAGATAG	-0.0536
AACGCATC	-0.0761
AAGTCTCA	-0.0462
AGAAATCG	0.0545
GACTCATA	-0.274
CGGCGCTC	0.0768
TCGCGTAA	0.16
CTGATACC	0.0308
GTCCAGCA	-0.189
AGTCTCGA	0.133
CTTCTCCC	-0.203
CGGTGCTC	-0.00907
AACGGAAA	0.259
CAGGCCCG	-0.0673
ACATACTG	0.0511
CACTCACG	0.0402

Sequence	PBM E-score
ATAATACG	0.0652
CGATCTTC	-0.0861
AACTACGG	-0.174
AACGCTCT	-0.187
AGGAGGTC	-0.152
CAGCCCAG	-0.136
CCCCGTTA	-0.00038
AAATTTGA	0.123
CTTACAAG	-0.0736
ACATACCT	-0.0117
GCGATTCC	-0.0698
GTACTGAC	-0.158
GAGACTAA	0.00829
CTAGTCAG	-0.209
GCCGCGGA	0.0303
CGGGCAGC	-0.133
CACCCGCG	0.207
AGCCGTTA	-0.0092
GCGGGTCA	0.0587
TATAGGGA	-0.0469
CGGATCCG	-0.127
GGCCCTAA	-0.0672
CAGAGTCA	-0.136
TATTCCCA	-0.00817
AGATGGTC	-0.116

Sequence	PBM E-score
ACTTACAA	0.189
AAGAGTAA	0.119
ATTCCTCG	0.12
AACCGTAT	-0.149
CAACACCG	-0.103
CTATAGTC	-0.0381
CTTACTCC	-0.0224
ATGGGTAA	-0.12
GTGGCAAC	-0.143
ACTCCCCA	-0.0647
AGTGTCTA	-0.191
CCGCCCCA	0.417
CGTAATCA	0.0585
AGAAAGCG	0.0749
ACTTCGGA	0.0657
CCCTATGC	-0.094
CCTAAGGA	-0.124
AGGCGACT	-0.275
AGCCCGCA	-0.114
ACCTGAGA	0.167
CCCTCTAC	-0.186
AATGATTC	0.044
AAATGCCG	0.138
CCGAACCA	0.143
TCGGAGCA	-0.149

Sequence	PBM E-score
AAAAGGAC	0.104
AACCACTG	-0.0131
ACCGACCC	-0.0546
GAGCCCGA	0.0856
ACCGCAGT	-0.0555
GAGTATTA	0.0882
AATAGCGG	0.00052
CCTTCGTC	-0.092
CTCCGCCC	0.02
GCAGAGTA	-0.113
GAGATTGC	-0.0611
AGCGTAGC	-0.163
ATTGAAGG	-0.102
CCTGTGAC	0.043
AAGCTGAC	-0.0325
CCGGCATC	-0.0932
CAAACGGC	-0.103
AATTATGA	0.222
GCAGATAA	0.00589
CCAAGTCG	-0.182
ATCGTGCG	0.207
CGCCTAAG	-0.0898
TCCACAGA	0.124
GAACTCCA	-0.0434
CGAACTGA	-0.0637

Sequence	PBM E-score
CGGAGACG	-0.0526
CGCCACTA	-0.0513
TGCCCGCA	0.0267
CGAAGTCC	-0.195
ATATACGC	-0.133
GACCCTCA	-0.226
GTATAAGA	0.143
AATGCTGA	-0.0171
GCCGCTGA	-0.0934
GAGACAGC	0.178
CCCACCTC	-0.0532
AGCTTACG	-0.18
CGGGAAGA	0.237
ATGTTATC	0.175
ACAAACTG	-0.1
AGGCGAGG	-0.153
GGTGTCAC	0.105
ATACCGGG	-0.0462
CTACTGAC	-0.0892
AGTGCTGG	-0.104
GCCAGACA	-0.0517
ACCCGAGC	0.0747
TGTATCAA	0.392
AGAACTAT	-0.0642
GAGCTATA	-0.143

Sequence	PBM E-score
AGTTATCA	0.084
CGCCTCCG	-0.18
ATTCTCTG	-0.0795
ACCCCGCA	-0.0313
CCTGTTGA	-0.11
AGAGTACA	-0.126
AGACACCA	0.0225
GAGCGTTA	0.104
ATTGGCAC	-0.0475
CTACGGAC	-0.0813
GATACGGA	0.0438
TAAGATCA	0.172
GCAAGCCA	-0.0403
GAATATGC	0.00468
AGTTGTAT	0.165
ATTACGGG	0.0285
ATTCAAAT	0.136
CTCGCTAA	0.0158
AGATCGCT	-0.0191
